Assay results: the supplement of paper PMC11348887
Where a name gives a salt, the structure may show the parent alone. This is one part of the list. Cut-off read from the data, not from the text of the source: active = -2 or less and inactive = the rest. Many values rest on one well or one pass, so single values are uncertain.

Tested on: hPSC-derived cortical neurons (WA09)
Assay: nuclei number (viability) z-score; higher = more surviving cells
Conditions: 5 µM; treatment: days 7-14 after plating, readout day 21
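Note: nuclei counted from DAPI counterstain by automated high-content image analysis, four fields per well at ×20 in 384-well plates, with sequential b-score then z-score normalization.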

| SMILES | nuclei number (z-score) |
| --- | --- |
| O=C(O)CNC(=O)c1c(O)c2ccccc2n(Cc2ccccc2)c1=O | inactive: -0.352 |
| CC(=O)OC1CN2CCC1CC2 (stereo not given) [Aceclidine HCl] | inactive: 0.269 |
| CC[C@@]1(O)C(=O)OCc2c1cc1n(c2=O)Cc2cc3ccccc3nc2-1 [Camptothecin] | inactive: -0.498 |
| CC(C)=CCC[C@]1(C)C=Cc2c(O)c3c(c(CC=C(C)C)c2O1)O[C@]12C(=C[C@@H]4C[C@H]1C(C)(C)O[C@@]2(C/C=C(/C)C(=O)O)C4=O)C3=O [Gambogic Acid] | active: -7.63 |
| CCNC(=O)C[C@@H]1N=C(c2ccc(Cl)cc2)c2cc(OC)ccc2-n2c(C)nnc21 | active: -3.69 |
| CN1c2ccccc2C(NCCCCCCC(=O)O)c2ccc(Cl)cc2S1(=O)=O (stereo not given) [Tianeptine sodium] | inactive: 0.387 |
| C[C@H]1CCC/C=C/[C@@H]2C[C@H](O)C[C@H]2[C@H](O)/C=C/C(=O)O1 [Brefeldin A] | active: -7.66 |
| COc1cc(-n2c(=S)[nH]c3ccccc3c2=O)c(Cl)cc1Cl [Mdivi-1] | inactive: 2.86 |
| CCCN1C[C@H](CSC)C[C@@H]2c3cccc4[nH]cc(c34)C[C@H]21 [Pergolide mesylate] | inactive: 0.908 |
| CC(=O)Nc1ccc(Cc2ccc(NC(C)=O)cc2)cc1 | inactive: 1.68 |
| CC1=C(O)C(=O)C=C2C1=CC=C1[C@@]2(C)CC[C@@]2(C)[C@@H]3C[C@](C)(C(=O)O)CC[C@]3(C)CC[C@]12C [Celastrol] | inactive: -0.733 |
| O=C(O)CCCc1ccc(N(CCCl)CCCl)cc1 [Chloroambucil] | inactive: 0.0963 |
| CC[C@@H](C(N)=O)N1CCCC1=O [Levetiracetam] | inactive: 0.482 |
| COc1ccc(C(=O)N2CCCC2=O)cc1 [Aniracetam] | inactive: 2.37 |
| O=C(O[C@H]1C[C@H]2CC[C@@H](C1)[N+]21CCCC1)C(O)(c1ccccc1)c1ccccc1 [Trospium chloride] | inactive: 5.36 |
| CN(C)Cc1c[nH]c2ccccc12 [Gramine] | inactive: -0.92 |
| NC(=O)C[S@@+]([O-])C(c1ccccc1)c1ccccc1 [Armodafinil] | inactive: -0.193 |
| NC(=O)CN1CC(O)CC1=O (stereo not given) [Oxiracetam] | inactive: -0.0522 |
| COc1cc([C@@H]2c3cc4c(cc3[C@H](O)[C@H]3COC(=O)[C@@H]23)OCO4)cc(OC)c1OC [Picropodophyllin (PPP)] | active: -4.75 |
| CN1CCC(c2c[nH]c3ccc(O)cc23)CC1 | inactive: -1.14 |
| C1=C2CCCN[C@H]2[C@@H]2C[C@H]1[C@H]1CCCCN1C2 [Aloperine] | inactive: 0.142 |
| CCOC(=O)c1cncn1[C@H](C)c1ccccc1 [Etomidate] | inactive: 1.85 |
| CCN1CCN(C(=O)Cc2ccc(Nc3ncc(F)c(Nc4ccc(C(=O)Nc5ccccc5Cl)cc4)n3)cc2)CC1 [Aurora A Inhibitor I] | inactive: -1.75 |

| SMILES | nuclei number (z-score) |
| --- | --- |
| CN1CCc2cc3c(cc2C1C1OC(=O)c2c1ccc1c2OCO1)OCO3 (single isomer, unassigned; (+)) [(+)-Bicuculline] | inactive: 0.0263 |
| CC(O)(CS(=O)(=O)c1ccc(F)cc1)C(=O)Nc1ccc(C#N)c(C(F)(F)F)c1 (stereo not given) [Bicalutamide] | inactive: 0.557 |
| C=C1CC[C@@]2(O)[C@H]3Cc4ccc(O)c5c4[C@@]2(CCN3CC2CC2)[C@H]1O5 [Nalmefene HCl] | inactive: 0.67 |
| O=c1cccc2n1C[C@@H]1CNC[C@H]2C1 [Cytisine] | inactive: 4.32 |
| NCC1(CC(=O)O)CCCCC1 [Gabapentin] | inactive: 2.35 |
| NCC1(CC(=O)O)CCCCC1 [Gabapentin HCl] | inactive: 0.0107 |
| O=C(O)c1nn(Cc2ccc(Cl)cc2Cl)c2ccccc12 [Lonidamine] | inactive: 1.88 |
| Cc1cc(C(C#N)c2ccc(Cl)cc2)c(Cl)cc1NC(=O)c1cc(I)cc(I)c1O (stereo not given) [Closantel Sodium] | inactive: 0.0693 |
| Cc1cc(C(C#N)c2ccc(Cl)cc2)c(Cl)cc1NC(=O)c1cc(I)cc(I)c1O (stereo not given) [Closantel] | inactive: 2.52 |
| CC(C)(C)c1cc(C=C(C#N)C#N)cc(C(C)(C)C)c1O [Tyrphostin 9] | inactive: 1.35 |
| c1ccc([C@@H]2C[C@H]2NC2CCNCC2)cc1 | inactive: 0.634 |
| COc1ccc(CC2NCCc3cc(OC)c(OC)cc32)cc1OC (stereo not given) [Tetrahydropapaverine HCl] | inactive: -0.36 |
| C[C@]12CC[C@H](O)CC1=CC[C@@H]1[C@@H]2CC[C@]2(C)C(=O)CC[C@@H]12 [Dehydroepiandrosterone (DHEA)] | inactive: 0.178 |
| O=C(O)CNC(=O)C1C(=O)N(C2CCCCC2)C(=O)N(C2CCCCC2)C1=O | inactive: 0.193 |
| CC(C)OC(=O)[C@H](C)N[P@](=O)(CO[C@H](C)Cn1cnc2c(N)ncnc21)Oc1ccccc1 [Tenofovir Alafenamide (GS-7340)] | inactive: -0.767 |
| O=[N+]([O-])c1ncc[nH]1 [Azomycin] | inactive: -0.68 |
| CC[C@H](C)[C@@H]([C@@H](CC(=O)N1CCC[C@H]1[C@H](OC)[C@@H](C)C(=O)N[C@H](C)[C@@H](O)c1ccccc1)OC)N(C)C(=O)[C@@H](NC(=O)[C@@H](NC)C(C)C)C(C)C [Monomethyl auristatin E (MMAE)] | active: -5.46 |
| Cc1cccc(Cc2c[nH]cn2)c1C [Detomidine HCl] | inactive: 0.27 |
| Cc1cccc(C)c1NC(=O)CN1CCCC1=O [Nefiracetam] | inactive: 1.08 |
| NC(=O)c1cc(N2CC2)c([N+](=O)[O-])cc1[N+](=O)[O-] | inactive: 0.359 |
| Cn1cc(C2=C(c3cn(C4CCN(Cc5ccccn5)CC4)c4ccccc34)C(=O)NC2=O)c2ccccc21 | inactive: -0.717 |
| C[C@@H]1CC[C@@]2(OC1)O[C@H]1C[C@H]3[C@@H]4CC=C5C[C@@H](O[C@@H]6O[C@H](CO)[C@@H](O[C@@H]7O[C@@H](C)[C@H](O)[C@@H](O)[C@H]7O)[C@H](O)[C@H]6O[C@@H]6O[C@@H](C)[C@H](O)[C@@H](O)[C@H]6O)CC[C@]5(C)[C@H]4CC[C@]3(C)[C@H]1[C@@H]2C [Dioscin] | active: -3.37 |
